Seven sequences from US20260193296A1 (priority 2023, published 2026) can be followed below.

Ends that are not written are not given here.

This experiment concerns CsPUB21. To be noted: for E3 ligase activity of CsPUB21 protein in citrus: summary statement, demonstrated by experiments; for inhibition of the enzyme activity of CsPUB21 (self-ubiquitination): SDE3 and CsPUB21 exist at the same time, FIG. 2B; for inhibitory effect on the E3 ligase activity of CsPUB21: co-presence of SDE3 and CsPUB21, flg22 and chitin polypeptide as controls, FIG. 1C. An excerpt:
Firstly, a vector for in vitro ubiquitination detection in Escherichia coli was constructed: a full-length clone of CsPUB21 was constructed into a vector pACYCDuet-CDS-Myc-AtUBC8-S by double digestion a enzyme ligation method to obtain a vector pACYCDuet-CsPUB21-Myc-AtUBC8-S. The full-length clone of SDE3 was constructed into a vector pGEX-DC by the double enzyme digestion ligation method to obtain a vector pGEX-SDE3.
(1) The vector pACYCDuet-CsPUB21-Myc-AtUBC8-S, the vector pGEX-SDE3, a vector pCDFDuet-AtUBA1-S and a vector pET-28a-FLAG-UBQ were jointly transferred into BL21 (DE3) competent cells, in which CsPUB21 served as an E3 ubiquitin ligase, AtUBC8 served as an E2 ubiquitin-conjugating enzyme, AtUBA1 served as an E1 ubiquitin-activating enzyme, and UBQ was a ubiquitin small molecule protein Ubiqutin.
(2) A strain containing an expression vector was cultured at 37° C. until Od600nm=0.4-0.6. After addition of 500 nM isopropyl β-D-thiogalactoside (IPTG), protein induction expression was performed at 28° C. for 10 hours, followed by reaction overnight at 4° C.
(3) The crude extracted protein material was separated by 8% SDS-PAGE gel, and the self-ubiquitination level of CsPUB21 was analyzed by immunohybridization using an anti-c-myc tag antibody.
(3) Inhibition of the enzyme activity of CsPUB21 by truncated peptides screened by ubiquitination experiment

On to DPMIWGYVMLNDRLSK [AMP9-16], for which the “E3 ligase activity of CsPUB21 protein in citrus” value (from here on “E3 ligase activity … in citrus”) is “inhibit the E3 ligase activity of CsPUB21 protein”. For the sequence MKKVKNIFHKIANADPMIWGYVMLNDRLSK [AMP9], the “inhibition of the enzyme activity of CsPUB21 (self-ubiquitination)” value (“inhibition” for short) is reported as “significantly inhibit”, the “inhibitory effect on the E3 ligase activity of CsPUB21” value is “obvious inhibitory effect” and the “E3 ligase activity … in citrus” value was “inhibit the E3 ligase activity of CsPUB21 protein”. As to “DPMIWGYVMLSESK [AMP3-14, DPMIWGYVMLSESK]”, the “inhibition” value is given as “minimum peptide sequence that inhibited the enzyme activity of CsPUN21” and the “E3 ligase activity … in citrus” value is on record as “inhibit the E3 ligase activity of CsPUB21 protein”. With MKKVKNIFHKIANADPMIWGYVML [AMP3-24], the “E3 ligase activity … in citrus” value was “inhibit the E3 ligase activity of CsPUB21 protein”. On the same count and under the same terms, the value for DPMIWGYVMLSESKDPMIWGYVMLNDSK [AMP-2β] was “inhibit the E3 ligase activity of CsPUB21 protein”; that for DPMIWGYVMLNDSK [AMP-β] was “inhibit the E3 ligase activity of CsPUB21 protein”. Consider MKKVKNIFHKIANADPMIWGYVMLSESK [AMP3], for which the “inhibition” value is given as “significantly inhibit”, the “inhibitory effect on the E3 ligase activity of CsPUB21” value is “obvious inhibitory effect” and the “E3 ligase activity … in citrus” value is listed as “inhibit the E3 ligase activity of CsPUB21 protein”.
